Consider 153 variants from a collection of fitness landscapes (doi:10.1126/science.1257360).

Sequences and labels used below:
B1: PhoQ; a variant is named by its letters at X, in order, P23837 (parent)
chain: MKKLLRLFFPLSLRVRFLLATAAVVLVLSLAYGMVALIGYSVSFDKTTFRLLRGESNLFYTLAKWENNKLHVELPENIDKQSPTMTLIYDENGQLLWAQRDVPWLMKMIQPDWLKSNGFHEIEADVNDTSLLLSGDHSIQQQLQEVREDDDDAEMTHSVAVNVYPATSRMPKLTIVVVDTIPVELKSSYMVWSWFIYVLSANLLLVIPLLWVAAWWSLRPIEALAKEVRELEEHNRELLNPATTRELTSLVRNLNRLLKSERERYDKYRTTLTDLTHSLKTPLXXLQXXLRSLRSEKMSVSDAEPVMLEQISRISQQIGYYLHRASMRGGTLLSRELHPVAPLLDNLTSALNKVYQRKGVNISLDISPEISFVGEQNDFVEVMGNVLDNACKYCLEFVEISARQTDEHLYIVVEDDGPGIPLSKREVIFDRGQRVDTLRPGQGVGLAVAREITEQYEGKIVAGESMLGGARMEVIFGRQHSAPKDE

This is one part of the list.

The variants in the test derive from B1. As to the kind of experiment: enrichment ratio after two sorts for PhoP signalling (ratio (wild type AVST 3.29)); higher = more functional. To be noted: with PhoP (E. coli).
For the variant MPQM, the enrichment ratio is no more than 0.25. For the variant PISV, the enrichment ratio was no more than 0.25. Regarding FWGF, the enrichment ratio is no more than 0.25.

As to AYCG, the enrichment ratio amounted to 1.8. In the case of RFYQ it was no more than 0.25; in that of MLQL, no more than 0.25; in that of SLSA, 2.05. For WRGV, the enrichment ratio was no more than 0.25. With KSPN, the enrichment ratio was no more than 0.25.

Take YRAL: the enrichment ratio is no more than 0.25. For WPFM, the enrichment ratio is no more than 0.25. Turning to QQMC, the enrichment ratio is no more than 0.25.

On to KIYS, for which the enrichment ratio is no more than 0.25.

With PCKS, the enrichment ratio was no more than 0.25. In the case of WISR it was no more than 0.25; in that of WNLF, no more than 0.25. Regarding VPCY, the enrichment ratio is no more than 0.25.

For FFTG, the enrichment ratio was no more than 0.25.

As to IRDP, the enrichment ratio was no more than 0.25. The same measure for IMAE: no more than 0.25; for ADFR: no more than 0.25. Consider KDDP, for which the enrichment ratio is no more than 0.25. In the case of RTIQ it was no more than 0.25; in that of TAYV, 4.62. Regarding LCIT, the enrichment ratio is no more than 0.25. For the variant WMAS, the enrichment ratio is no more than 0.25. On to QGER, for which the enrichment ratio was no more than 0.25.

Regarding VPGT, the enrichment ratio was no more than 0.25.

On to GKEH, for which the enrichment ratio is no more than 0.25.

On to WAPN, for which the enrichment ratio is no more than 0.25. For the variant RQQP, the enrichment ratio was no more than 0.25. The same measure for PTPF: 0.27; for WNVP: no more than 0.25.

For EYTC, the enrichment ratio is no more than 0.25.

Regarding EYQV, the enrichment ratio was no more than 0.25. In the case of WRII it was no more than 0.25; in that of LYEW, no more than 0.25; in that of HETN, no more than 0.25. For the variant WNSR, the enrichment ratio was no more than 0.25. Turning to TWVG, the enrichment ratio was no more than 0.25. In the case of VMDF, the enrichment ratio is no more than 0.25. HMPH: the enrichment ratio was no more than 0.25. Consider WKSL, for which the enrichment ratio is no more than 0.25. For VMIC, the enrichment ratio was no more than 0.25. As to DPPE, the enrichment ratio is no more than 0.25. As for AEIR, the enrichment ratio worked out at 2.03.

MPPP: the enrichment ratio is no more than 0.25. In the case of GCAY it was no more than 0.25; in that of ISHF, no more than 0.25.

On to NFLS, for which the enrichment ratio was no more than 0.25. With TTKP, the enrichment ratio is no more than 0.25. In the case of YQVT, the enrichment ratio is no more than 0.25.

As to WPAN, the enrichment ratio was no more than 0.25. Turning to IFMT, the enrichment ratio is no more than 0.25.

Take NFYM: the enrichment ratio was no more than 0.25. On to MDTW, for which the enrichment ratio is no more than 0.25. As to EDGQ, the enrichment ratio was no more than 0.25.

IQFE: the enrichment ratio was no more than 0.25.

Turning to GKHR, the enrichment ratio is no more than 0.25. For the variant MVNL, the enrichment ratio is no more than 0.25. In the case of NWVT, the enrichment ratio is no more than 0.25. For the variant YPAL, the enrichment ratio was no more than 0.25. Take SDHI: the enrichment ratio is no more than 0.25. The same measure for YQDH: no more than 0.25; for MGPN: no more than 0.25. Turning to FELC, the enrichment ratio turned out to be 4.63. Regarding TDPW, the enrichment ratio is no more than 0.25. In the case of QLAK it was no more than 0.25; in that of QGKF, no more than 0.25; in that of IYPM, no more than 0.25.

GFVY: the enrichment ratio was no more than 0.25. Regarding MWHI, the enrichment ratio is no more than 0.25. In the case of REVY it was no more than 0.25; in that of EPNC, no more than 0.25.

In the case of MMVM, the enrichment ratio is no more than 0.25. With AFKN, the enrichment ratio is no more than 0.25. On to TRYI, for which the enrichment ratio is no more than 0.25.

Consider NDVE, for which the enrichment ratio is no more than 0.25. For KRVH, the enrichment ratio is no more than 0.25.

For WMPP, the enrichment ratio was no more than 0.25. On to VEVI, for which the enrichment ratio is no more than 0.25.

For the variant ANAP, the enrichment ratio was no more than 0.25. Regarding VLWA, the enrichment ratio is no more than 0.25.

Consider YCMI, for which the enrichment ratio was determined as 5.48. With YASH, the enrichment ratio was no more than 0.25. For the variant FKNF, the enrichment ratio is no more than 0.25. For WVHT, the enrichment ratio was no more than 0.25.

For the variant TWRD, the enrichment ratio was no more than 0.25. In the case of FKAM it was no more than 0.25. On to SEFL, for which the enrichment ratio turned out to be 6.11.

Turning to SRNW, the enrichment ratio was no more than 0.25. In the case of KARD it was no more than 0.25; in that of EVFR, no more than 0.25. In the case of DARW, the enrichment ratio is no more than 0.25.

QEYV: the enrichment ratio is no more than 0.25. Turning to TVLE, the enrichment ratio is no more than 0.25.

Take MCQF: the enrichment ratio is no more than 0.25. For FMMH, the enrichment ratio is no more than 0.25. On to WCFV, for which the enrichment ratio was no more than 0.25.

Turning to GPNH, the enrichment ratio was no more than 0.25.

Turning to RQLS, the enrichment ratio was no more than 0.25. In the case of NRSV it was no more than 0.25; in that of TVMI, 1.87; in that of KKPA, no more than 0.25. In the case of ACIF it was 9.1; in that of YCLA, 3.46; in that of DGFS, no more than 0.25. On to YHAD, for which the enrichment ratio is no more than 0.25. TDVC: the enrichment ratio was 24.1. As for YATQ, the enrichment ratio amounted to 0.489. In the case of VAFN it was no more than 0.25.

YLIM: the enrichment ratio was no more than 0.25. As for FCPW, the enrichment ratio is no more than 0.25. With DPTA, the enrichment ratio was no more than 0.25.

With GYEA, the enrichment ratio is no more than 0.25.

Turning to FMAM, the enrichment ratio is no more than 0.25. As for AIEF, the enrichment ratio was no more than 0.25.

With LMTD, the enrichment ratio is no more than 0.25. On to SRYW, for which the enrichment ratio was no more than 0.25.

In the case of WLGS, the enrichment ratio was no more than 0.25. For NCRQ, the enrichment ratio was no more than 0.25.

For the variant FVFE, the enrichment ratio is no more than 0.25.

KFIV: the enrichment ratio is no more than 0.25.

On to RGEK, for which the enrichment ratio is no more than 0.25. Regarding RHHT, the enrichment ratio is no more than 0.25. As for RHPP, the enrichment ratio was no more than 0.25. Take PQNR: the enrichment ratio was no more than 0.25. Turning to HTYG, the enrichment ratio was no more than 0.25.

On to SRDI, for which the enrichment ratio is 0.315. Regarding HQPK, the enrichment ratio is no more than 0.25. For VCNA, the enrichment ratio is no more than 0.25. As for DPWY, the enrichment ratio is no more than 0.25. For RIRP, the enrichment ratio was no more than 0.25.

Turning to YRKY, the enrichment ratio worked out at 1.52. On to VVPY, for which the enrichment ratio is no more than 0.25. ILAV: the enrichment ratio is no more than 0.25. In the case of DMES, the enrichment ratio is no more than 0.25.

In the case of DELY, the enrichment ratio was no more than 0.25. The same measure for VNKN: no more than 0.25.

As for HVFF, the enrichment ratio was no more than 0.25. With MHVQ, the enrichment ratio was no more than 0.25. In the case of PIDV it was no more than 0.25; in that of QVDC, no more than 0.25. In the case of VIYH it was no more than 0.25; in that of TMPH, no more than 0.25. Consider SRKN, for which the enrichment ratio is no more than 0.25. In the case of DCTH it was no more than 0.25; in that of RKEF, no more than 0.25; in that of KPHV, no more than 0.25. In the case of HEGP it was no more than 0.25; in that of NRFD, no more than 0.25; in that of HVCP, no more than 0.25. With SKEN, the enrichment ratio is no more than 0.25.
